Experimental data: the supplement of paper PMC3334620
Over roughly 33,000 sequences, “E-score (-0.5 to 0.5)” has its median near -0.012; the highest 2% begin near 0.29. This is one part of the list.

biological target: T1, Ybr033w (UniProt P38073); experiment: PBM E-score (8-mer binding enrichment) (E-score (-0.5 to 0.5)); higher = stronger / more preferred TF binding; most listed sequences are background and not binding sites; details: protein concentration: 200 nM; construct: GST-full length
T1 sequence: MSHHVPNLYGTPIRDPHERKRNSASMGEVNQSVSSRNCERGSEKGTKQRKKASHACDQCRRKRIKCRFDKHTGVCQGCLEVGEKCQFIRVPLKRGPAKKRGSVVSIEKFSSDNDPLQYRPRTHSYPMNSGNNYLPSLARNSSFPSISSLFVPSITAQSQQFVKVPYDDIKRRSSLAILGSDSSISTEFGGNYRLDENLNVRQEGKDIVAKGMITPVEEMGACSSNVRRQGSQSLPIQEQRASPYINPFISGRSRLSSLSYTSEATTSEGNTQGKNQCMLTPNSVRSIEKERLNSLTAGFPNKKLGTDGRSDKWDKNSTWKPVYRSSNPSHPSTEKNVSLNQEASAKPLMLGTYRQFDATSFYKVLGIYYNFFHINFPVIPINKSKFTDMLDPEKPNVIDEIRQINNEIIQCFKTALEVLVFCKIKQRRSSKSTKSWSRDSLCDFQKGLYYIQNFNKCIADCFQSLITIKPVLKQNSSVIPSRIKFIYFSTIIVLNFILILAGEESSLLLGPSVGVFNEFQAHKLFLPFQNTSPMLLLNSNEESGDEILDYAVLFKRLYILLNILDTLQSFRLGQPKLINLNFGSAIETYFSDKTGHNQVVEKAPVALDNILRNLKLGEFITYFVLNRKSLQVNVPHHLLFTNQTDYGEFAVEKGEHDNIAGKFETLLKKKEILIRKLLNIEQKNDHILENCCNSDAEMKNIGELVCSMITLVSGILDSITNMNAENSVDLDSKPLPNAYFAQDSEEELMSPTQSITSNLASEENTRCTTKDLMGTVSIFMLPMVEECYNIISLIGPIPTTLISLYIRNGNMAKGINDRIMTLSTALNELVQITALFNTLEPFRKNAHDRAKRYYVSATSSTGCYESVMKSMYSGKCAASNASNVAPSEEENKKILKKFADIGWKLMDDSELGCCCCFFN
Method in brief: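 Full-length yeast transcription factors or their DNA-binding domains, GST-tagged and expressed with PURExpress, were applied at about 100-200 nM to universal all-10-mer Agilent arrays. These arrays had been made double-stranded by primer extension on fresh or once-stripped slides. Detection used fluorescent anti-GST, normalisation used masliner, and E-scores for ungapped eight-base words pooled with reverse complements came from the Universal PBM Analysis Suite.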

Row | Sequence | PBM E-score
1 | ATAAATGC | 0.0963
2 | CTTGTGCC | -0.354
3 | ACCTTTCT | -0.0058
4 | CCTCTACC | -0.0288
5 | GGGATTAC | -0.103
6 | ATTCGGCC | -0.157
7 | GTCATCCA | -0.0983
8 | TATGCATA | 0.0884
9 | CATTTAGA | 0.0917
10 | ACTTTCCA | 0.164
11 | TGGTTAAA | 0.232
12 | CTCAGAGA | -0.202
13 | CGCACATC | -0.0563
14 | CTCTCGTC | -0.165
15 | AAGGAACA | 0.283
16 | ATATCGTG | 0.0168
17 | AATGGCCG | -0.193
18 | GAAGTGCC | -0.102
19 | CACCCCCA | -0.322
20 | CGAAAGGA | 0.0281
21 | AAAGCACG | -0.0888
22 | GCATTCTA | 0.11
23 | AAAGCGAG | 0.0778
24 | AAGACCTG | -0.231
25 | GCGTGGGA | -0.227

Row | Sequence | PBM E-score
26 | CCAAACAC | 0.0133
27 | AATACCAG | 0.12
28 | AACCGCTG | -0.084
29 | ACGTGTCC | -0.23
30 | TGCGGGAA | 0.159
31 | AGTTATCC | 0.018
32 | CTAGCTGA | -0.0653
33 | AAGAGAAA | 0.0217
34 | AGTAAGAA | 0.208
35 | GAAATTGA | 0.289
36 | GCTCAACC | -0.0689
37 | GTTAAAGA | 0.182
38 | AATCAGGC | 0.0854
39 | CAGTAGCA | -0.0527
40 | GATTGAGC | 0.133
41 | ACCCTCCT | -0.22
42 | ATGGCGAG | -0.113
43 | CAGCCGTA | -0.106
44 | ACGTACGA | -0.182
45 | AGTATGGA | 0.171
46 | CACGATGA | 0.123
47 | AGCCCGTG | -0.317
48 | GGGCCGGA | -0.17
49 | GGTGCAAA | -0.00124
50 | ACCAGACG | -0.0483

Row | Sequence | PBM E-score
51 | ATACCAGA | 0.191
52 | CCGAAGCG | -0.199
53 | AAGGGAAA | 0.112
54 | ACGAGGCC | -0.265
55 | GCTTTCAC | -0.168
56 | ACTTCCAC | -0.104
57 | ATGGTGTG | 0.0876
58 | AACGGGGG | -0.309
59 | AGGTACCA | -0.145
60 | AGATCAAC | 0.0509
61 | ATGTTGCG | 0.0418
62 | CATACTAG | 0.157
63 | ATCTAAGC | 0.0351
64 | CCTGTATC | 0.0676
65 | ATCCAACA | 0.0678
66 | GCCGAGTA | -0.121
67 | ACTGTGCG | -0.00496
68 | ACCTCCGA | -0.0443
69 | ATTGTGTG | 0.122
70 | ATCTACCC | 0.0482
71 | CCATTACG | -0.14
72 | GCCCTCCA | -0.175
73 | ACCGGTGA | -0.244
74 | CACCCCCG | -0.201
75 | CCCACACG | -0.149

Row | Sequence | PBM E-score
76 | AGGTTTTG | 0.023
77 | ACAACTGA | 0.144
78 | ACAACTCT | 0.241
79 | GAAGCTAC | -0.0159
80 | AAATACCA | 0.199
81 | TGTCCTAA | 0.053
82 | AAAGCAAT | 0.16
83 | AACACAAC | 0.116
84 | GGATGGCA | 0.0893
85 | TACGTATA | 0.115
86 | AAGGGACA | -0.121
87 | GGCTTACA | 0.0224
88 | AGAGTATC | -0.049
89 | GGGGCGAA | -0.149
90 | GTACCGTA | -0.14
91 | ACTGACCT | 0.0147
92 | CAAACGTA | 0.12
93 | CTCTATCA | -0.0434
94 | GATTGGGC | -0.0587
95 | GGAAAACA | 0.17
96 | ATGTTTTG | 0.216
97 | CAGTACGG | -0.00053
98 | AGGCTACC | -0.279
99 | CGCTATAC | -0.172
100 | GCTTGCCC | -0.303

Row | Sequence | PBM E-score
101 | GCGTCAGC | -0.15
102 | GTCTCAGA | -0.218
103 | CGATAAAC | -0.148
104 | GATTAATA | 0.328
105 | TAAAACAA | 0.177
106 | GGGGAATA | -0.0146
107 | ATAACGAC | 0.193
108 | CCAACGAC | -0.185
109 | ACCAGACC | -0.0442
110 | GAGAATTA | 0.238
111 | AGAATCCA | -0.0591
112 | ACCTCCGG | -0.0279
113 | GATTAGTA | 0.0492
114 | CGACTCGC | -0.0745
115 | AAGATATT | 0.258
116 | GTATGTTA | 0.148
117 | AGCTCCCC | -0.281
118 | ACATATGT | -0.046
119 | ACAGCGGC | -0.215
120 | CGATCTGA | -0.0469
121 | ACGGTGTC | -0.126
122 | CTCTCCAG | -0.325
123 | GACCGCTC | -0.184
124 | CCGGCTTA | -0.0887
125 | AAACCCGT | -0.104

Row | Sequence | PBM E-score
126 | CCCTACAG | -0.215
127 | GATTCAGA | 0.161
128 | ACGCTTCA | -0.209
129 | ATCTTCAC | 0.154
130 | GCGCGATA | 0.181
131 | AGGACAAA | 0.17
132 | TGCAGAAA | 0.123
133 | AGTAGGTG | -0.107
134 | TCGGGACA | -0.00946
135 | CATCTATC | 0.0429
136 | GACCCTGA | -0.199
137 | AAACCGCA | -0.147
138 | CCCGGTTC | -0.0468
139 | CACGTTCA | -0.153
140 | AAATTGCA | 0.146
141 | GTCTACGA | -0.116
142 | AGTTGTCC | 0.0101
143 | ATTGAGTC | -0.0117
144 | GTCTAACA | -0.194
145 | CGGAACGA | 0.0838
146 | CAACTCTC | 0.0899
147 | CCAATCCC | 0.0151
148 | ACTATCTC | 0.206
149 | CGTATGTC | -0.0971
150 | AAGTTAAC | 0.224

Row | Sequence | PBM E-score
151 | GTTTCTAA | 0.168
152 | CAGTGCAA | 0.178
153 | GTTTACTA | 0.267
154 | GGCGTTTA | -0.127
155 | TACACCCA | -0.00079
156 | CAAATTTG | -0.0425
157 | ACCAGTCA | 0.00132
158 | CACCATAC | 0.159
159 | GTTGACGA | -0.0199
160 | ATAAATTA | 0.375
161 | TTAATGAA | 0.195
162 | CTATCAAC | 0.181
163 | GCTTCCCA | -0.191
164 | AAAGCTTC | -0.0172
165 | ATATCGAT | 0.238
166 | CTATGCTA | 0.0835
167 | ATGTTGAC | 0.17
168 | CAGGGGGA | -0.31
169 | GAGTCTAC | -0.0896
170 | CCTACACG | -0.17
171 | CCTTGCGC | -0.0912
172 | CCAAAGGG | -0.17
